# The supplement of paper PMC8728848
# The other results are listed elsewhere or left out.
# What was measured:
# Assay in all cases: glycan array binding signal (z-score within array); higher = stronger binding
# Settings in all cases: glycan notation: IUPAC condensed, linker removed
# [1] = target: Fuc(a1-3)[Gal(b1-4)]Glc6S
# How it was run: (§1)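 The binding signal is a Z-score computed within each array. Data were drawn from 3228 arrays in the Consortium for Functional Glycomics database, restricted to those with a known protein sequence. Scores were averaged over arrays of the same protein sequence at different concentrations or buffers, and over linkers, and negative values can be taken as non-binding.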
# [2] = target: Fuc(a1-3)[Gal(b1-4)]GlcNAc
# How it was run: as §1
# [3] = target: Fuc(a1-3)[Gal(b1-4)]GlcNAc(b1-2)Man(a1-3)[Fuc(a1-3)[Gal(b1-4)]GlcNAc(b1-2)Man(a1-6)]Man(b1-4)GlcNAc(b1-4)GlcNAc
# How it was run: as §1
# [4] = target: Fuc(a1-3)[Gal(b1-4)]GlcNAc(b1-2)Man(a1-3)[Fuc(a1-3)[Gal(b1-4)]GlcNAc(b1-2)Man(a1-6)]Man(b1-4)GlcNAc(b1-4)[Fuc(a1-6)]GlcNAc
# How it was run: as §1
# [5] = target: Fuc(a1-3)[Gal(b1-4)]GlcNAc(b1-2)Man(a1-6)[Gal(b1-4)GlcNAc(b1-2)Man(a1-3)]Man(b1-4)GlcNAc(b1-4)GlcNAc
# How it was run: as §1
# [6] = target: Fuc(a1-3)[Gal(b1-4)]GlcNAc(b1-3)Gal(b1-3)[Fuc(a1-4)]GlcNAc
# How it was run: as §1
# [7] = target: Fuc(a1-3)[Gal(b1-4)]GlcNAc(b1-3)GalNAc
# How it was run: as §1
# [8] = target: Fuc(a1-3)[Gal(b1-4)]GlcNAc(b1-4)Gal(b1-4)[Fuc(a1-3)]GlcNAc
# How it was run: as §1
# [9] = target: Fuc(a1-3)[Gal(b1-4)]GlcNAc(b1-4)Gal(b1-4)[Fuc(a1-3)]GlcNAc(b1-4)Gal(b1-4)[Fuc(a1-3)]GlcNAc
# How it was run: as §1
# [10] = target: Fuc(a1-3)[Gal(b1-4)]GlcNAc(b1-6)GalNAc
# How it was run: as §1
# [11] = target: Fuc(a1-3)[Gal(b1-4)]GlcNAc(b1-6)[Gal(b1-3)GlcNAc(b1-3)]Gal(b1-4)Glc
# How it was run: as §1
# [12] = target: Fuc(a1-3)[Gal(b1-4)]GlcNAc(b1-6)[Neu5Ac(a2-3)Gal(b1-3)]GalNAc
# How it was run: as §1
# [13] = target: Fuc(a1-3)[Gal(b1-4)]GlcNAc6S
# How it was run: as §1
# [14] = target: Fuc(a1-3)[Gal3S(b1-4)]Glc6S
# How it was run: as §1
# [15] = target: Fuc(a1-3)[Gal3S(b1-4)]GlcNAc
# How it was run: as §1
# [16] = target: Fuc(a1-3)[Gal3S(b1-4)]GlcNAc6S
# How it was run: as §1
# [17] = target: Fuc(a1-3)[GalNAc(b1-4)]GlcNAc
# How it was run: as §1
# [18] = target: Fuc(a1-3)[Neu5Ac(a2-3)]Gal(b1-4)GlcNAc(b1-3)GalNAc
# How it was run: as §1
# Fuc(a1-4)GlcNAc = target: Fuc(a1-4)GlcNAc
# How it was run: as §1
# Fuc(b1-3)GlcNAc = target: Fuc(b1-3)GlcNAc
# How it was run: as §1
# Gal(a1-2)Gal = target: Gal(a1-2)Gal
# How it was run: as §1
# Gal(a1-3)Gal = target: Gal(a1-3)Gal
# How it was run: as §1
# Gal(a1-3)Gal(b1-3)GlcNAc = target: Gal(a1-3)Gal(b1-3)GlcNAc
# How it was run: as §1
# [19] = target: Gal(a1-3)Gal(b1-3)GlcNAc(b1-2)Man(a1-3)[Gal(a1-3)Gal(b1-3)GlcNAc(b1-2)Man(a1-6)]Man(b1-4)GlcNAc(b1-4)GlcNAc
# How it was run: as §1
# [20] = target: Gal(a1-3)Gal(b1-3)GlcNAc(b1-3)GalNAc
# How it was run: as §1
# [21] = target: Gal(a1-3)Gal(b1-3)[Fuc(a1-4)]GlcNAc(b1-2)Man(a1-3)[Gal(a1-3)Gal(b1-3)[Fuc(a1-4)]GlcNAc(b1-2)Man(a1-6)]Man(b1-4)GlcNAc(b1-4)GlcNAc
# How it was run: as §1
# Gal(a1-3)Gal(b1-4)Glc = target: Gal(a1-3)Gal(b1-4)Glc
# How it was run: as §1
# Gal(a1-3)Gal(b1-4)GlcNAc = target: Gal(a1-3)Gal(b1-4)GlcNAc
# How it was run: as §1
# [22] = target: Gal(a1-3)Gal(b1-4)GlcNAc(b1-3)GalNAc
# How it was run: as §1
# [23] = target: Gal(a1-3)Gal(b1-4)[Fuc(a1-3)]GlcNAc
# How it was run: as §1
# [24] = target: Gal(a1-3)Gal(b1-4)[Fuc(a1-3)]GlcNAc(b1-2)Man(a1-3)[Gal(a1-3)Gal(b1-4)[Fuc(a1-3)]GlcNAc(b1-2)Man(a1-6)]Man(b1-4)GlcNAc(b1-4)GlcNAc
# How it was run: as §1
# Gal(a1-3)GalNAc = target: Gal(a1-3)GalNAc
# How it was run: as §1
# [25] = target: Gal(a1-3)[Gal(a1-4)]Gal(b1-4)GlcNAc
# How it was run: as §1
# [26] = target: Gal(a1-4)Gal(b1-3)GlcNAc(b1-2)Man(a1-3)[Gal(a1-4)Gal(b1-3)GlcNAc(b1-2)Man(a1-6)]Man(b1-4)GlcNAc(b1-4)GlcNAc
# How it was run: as §1
# Gal(a1-4)Gal(b1-4)Glc = target: Gal(a1-4)Gal(b1-4)Glc
# How it was run: as §1
# Gal(a1-4)Gal(b1-4)GlcNAc = target: Gal(a1-4)Gal(b1-4)GlcNAc
# How it was run: as §1
# [27] = target: Gal(a1-4)Gal(b1-4)GlcNAc(b1-2)Man(a1-3)[Gal(a1-4)Gal(b1-4)GlcNAc(b1-2)Man(a1-6)]Man(b1-4)GlcNAc(b1-4)GlcNAc
# How it was run: as §1
# [28] = target: Gal(a1-4)Gal(b1-4)GlcNAc(b1-3)Gal(b1-4)Glc
# How it was run: as §1
# Gal(a1-4)GlcNAc = target: Gal(a1-4)GlcNAc
# How it was run: as §1
# Gal(a1-6)Glc = target: Gal(a1-6)Glc
# How it was run: as §1
# Gal(b1-2)Gal = target: Gal(b1-2)Gal
# How it was run: as §1
# Gal(b1-3)Gal = target: Gal(b1-3)Gal
# How it was run: as §1
# Gal(b1-3)Gal(b1-4)GlcNAc = target: Gal(b1-3)Gal(b1-4)GlcNAc
# How it was run: as §1
# [29] = target: Gal(b1-3)Gal(b1-4)GlcNAc(b1-2)Man(a1-3)[Gal(b1-3)Gal(b1-4)GlcNAc(b1-2)Man(a1-6)]Man(b1-4)GlcNAc(b1-4)GlcNAc
# How it was run: as §1
# Gal(b1-3)GalNAc = target: Gal(b1-3)GalNAc
# How it was run: as §1
binder,measurement,setting,value
"BC2L-A (Burkholderia cenocepacia), Q1BKJ8_BURCA (protein) ADSQTSSNRAGEFSIPPNTDFRAIFFANAAEQQHIKLFIGDSQEPAAYHKLTTRDGPREATLNSGNGKIRFEVSVNGKPSATDARLAPINGKKSDGSPFTVNFGIVVSEDGHDSDYNDGIVVLQWPIG",glycan array binding signal (z-score),[1],-0.234
same,glycan array binding signal (z-score),[2],-0.285
same,glycan array binding signal (z-score),[3],-0.263
same,glycan array binding signal (z-score),[4],-0.217
same,glycan array binding signal (z-score),[5],-0.36
same,glycan array binding signal (z-score),[6],0.01
same,glycan array binding signal (z-score),[7],-0.218
same,glycan array binding signal (z-score),[8],-0.106
same,glycan array binding signal (z-score),[9],-0.276
same,glycan array binding signal (z-score),[10],-0.219
same,glycan array binding signal (z-score),[11],-0.214
same,glycan array binding signal (z-score),[12],-0.209
same,glycan array binding signal (z-score),[13],-0.298
same,glycan array binding signal (z-score),[14],0.898
same,glycan array binding signal (z-score),[15],-0.317
same,glycan array binding signal (z-score),[16],-0.295
same,glycan array binding signal (z-score),[17],-0.263
same,glycan array binding signal (z-score),[18],-0.178
same,glycan array binding signal (z-score),Fuc(a1-4)GlcNAc,0.092
same,glycan array binding signal (z-score),Fuc(b1-3)GlcNAc,-0.287
same,glycan array binding signal (z-score),Gal(a1-2)Gal,-0.29
same,glycan array binding signal (z-score),Gal(a1-3)Gal,-0.175
same,glycan array binding signal (z-score),Gal(a1-3)Gal(b1-3)GlcNAc,-0.284
same,glycan array binding signal (z-score),[19],-0.186
same,glycan array binding signal (z-score),[20],-0.219
same,glycan array binding signal (z-score),[21],0.042
same,glycan array binding signal (z-score),Gal(a1-3)Gal(b1-4)Glc,-0.241
same,glycan array binding signal (z-score),Gal(a1-3)Gal(b1-4)GlcNAc,-0.291
same,glycan array binding signal (z-score),[22],-0.221
same,glycan array binding signal (z-score),[23],-0.292
same,glycan array binding signal (z-score),[24],-0.262
same,glycan array binding signal (z-score),Gal(a1-3)GalNAc,-0.296
same,glycan array binding signal (z-score),[25],-0.291
same,glycan array binding signal (z-score),[26],0.533
same,glycan array binding signal (z-score),Gal(a1-4)Gal(b1-4)Glc,-0.291
same,glycan array binding signal (z-score),Gal(a1-4)Gal(b1-4)GlcNAc,-0.293
same,glycan array binding signal (z-score),[27],-0.217
same,glycan array binding signal (z-score),[28],-0.296
same,glycan array binding signal (z-score),Gal(a1-4)GlcNAc,-0.291
same,glycan array binding signal (z-score),Gal(a1-6)Glc,-0.293
same,glycan array binding signal (z-score),Gal(b1-2)Gal,-0.288
same,glycan array binding signal (z-score),Gal(b1-3)Gal,-0.293
same,glycan array binding signal (z-score),Gal(b1-3)Gal(b1-4)GlcNAc,-0.299
same,glycan array binding signal (z-score),[29],-0.212
same,glycan array binding signal (z-score),Gal(b1-3)GalNAc,-0.294
